Source: the RNAGym collection of RNA variant scans (doi:10.1073/pnas.2313332121)
Variants at the floor of the assay are shown more often than the library holds them.

B1: TPR 5TU (parent)
chain: GGAUCUUCUCGAUCUAACAAAAAAGACAAAUCUGCCACAAAGCUUGAGAGCAUCUUCGGAUGCAGAGGCGGCAGCCUUCGGUGGCGCGAUAGCGCCAACGUUCUCAACUAUGACACGCAAAACGCGUGCUCCGUUGAAUGGAGUUUAUCAUG

Variants of: B1
Test: polymerase ribozyme fitness, log enrichment relative to wild type (log ratio); higher = more active; in vitro selection for triplet polymerase activity
How it was run: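 Mutant libraries for each subunit of a heterodimeric triplet polymerase ribozyme were made by PCR and then transcribed. Each library underwent one round of in vitro selection in triplicate: annealing with a biotinylated primer, the partner subunit and triplets, frozen incubation at −7 °C, gel excision of extended constructs, streptavidin-bead capture and RT-PCR. Input and output libraries were Illumina-sequenced, and only genotypes with ≥10 input reads and ≥1 read per output were kept. Fitness is the logarithm, base 2, of genotype enrichment over wild-type enrichment, computed from inverse-variance-weighted replicate averages.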

Polymerase ribozyme fitness (log ratio), ≤ -4.2:
GGAUCCUCUCGAUCUAACAAAAAAGACAAAUCUGCCACAAACCUUGAGAGCAUCUUCGGGUGCAGAGGCGGCAGCCUUCGGUGGCGCGAUAGCUCCAACGUUCUGAACUAUGACACGCAAAACGCGUGCUCCGUUGAAUGGAGUUUAUCAUG [U6C G42C A60G G94U C105G]
GGAUCCUCUCGAUCUAACAAAAAAGACAAAUCUGCCACAAAGCUUAAGAGCAUCUUCGGAUGCAGAGGCGACAGCCUUCGGUGGCGCGAUAGCGCGAACGUUCUCAACUAUGACACGCAAAACGCGCGCUCCGUUGAAUGGAGUUUAUCAUG [U6C G46A G71A C96G U127C]
GGAUCCUCUCGAUCUAACAAAAAAGACAAAUCUGCCACAAAGCUUAAGAGCAUCUUCGGAUGCAGAGGCGGCAGCCUUCGGAUGCGCGAUAGUGCCAACGUUCUCAACUAUGACACGCAAAACGCGUGCUCCGUUGAAUGGAGUUUAUCAUG [U6C G46A U82A G83U C93U]
GGAUCCUCUCGAUCUAACAAAAAAGACAAAUCUGCCACAAAGCUUGACAGCAUCUUCGGAUGCAAAGGCGGCAGCCUACAGUGGCGCCAUAGCGCCAACGUUCUCGACUAUGACACGCAAAACGCGCGCUCCGUUGAAUGGAGUUUAUCAUU [U6C G48C G65A U78A G80A G88C A106G U127C G152U]
GGAUCCUCUCGAUCUAACAAAAAAGACAAAUCUGCCACAAAGCUUGAGAACAUCUUCGGAUGCAGAGGCGGCAGCCUUCGGUGGCGCGAUAGCACCAACGUUCUCAACUAUGCCACGCAAAACGCGUGCUCCGUUGAAUGGAGUAUAUCAUG [U6C G50A G94A A113C U145A]
GGAUCCUCUCGAUCUAACAAAAAAGACAAAUCUGCCACAAAGCUUGAGAGCAUCUUCGCAUGCAGAGGCGGCAGCCUUCGGUGGCGCGAUAGUGCCAACGUUCUAAACUAUGACACGCAAAACGCGUGCUCCGUUGAAUGGAGUUUAUCCUU [U6C G59C C93U C105A A150C G152U]
GGAUCCUCUCGAUCUAACAAAAAAGACAAAUCUGCCACAAAGCUUGAGAGCAUCUUCGGAUGCAGAGUGGGCAGCCUUCGGUGGUGCGAUAGCGCCAACGUUCUCAACUAUGACACGCAAAACGCGUGCUCCGUUGAAUGGAGUUUAUCAUG [U6C G68U C69G C85U]
GGAUCCUCUCGAUCUAACAAAAAAGACAAAUCUGCCACAAAGCUUGAGAGCAUCUUCGGAUGCAGAGGCAGCAGCCUUCGGUGGCGUGAUAGCGCCAACGUUCUCAACUAUGACACGCAAAACGCGUGCUCCGUUGAAUGGAGUUUAUCAUG [U6C G70A C87U]
GGAUCCUCUCGAUCUAACAAAAAAGACAAAUCUGCCACAAAGCUUGAGAGCAUCUUCGGAUGCAGAGGCGGCAGCCUUCGGUCGCGCGAUCGCGCCAACGUUCUCAACUAUGACACGCAAAACGCGUGCUCCGUUGAAUGGAGUCUAUCAUG [U6C G83C A91C U145C]
GGAUCCUCUCGAUCUAACAAAAAAGACAAAUCUGCCACAAAGCUUGAGAGCAUCUUCGGAUGCAGAGGCGGCAGCCUUCGGUGGCGCAAUAGCGCCAACGUUCUCAACUAUGACACGCAAAACGCGUGCUCCGUUGAAUGGAGUUUAUCAUG [U6C G88A]
GGAUCCACUCGAUCUAACAAAAAAGCCAAAUCUGCCACAAAACUUGGGAGCAUCUUCGGAUGCAGAGGCGACAGCCUUCGGUGGCGCGAUAGCGCCAACGUUCUCAACUAUGACACGCAAAACGCGUGCUUCGCUGAAUGGAGUUUAUCAUG [U6C U7A A26C G42A A47G G71A C131U U134C]
GGAUCCGCUCGAUCUAACAAAAAAGACAAAUCUGCCACACAGCUUGAGAGCGUCUUCGGAUGCAGAGGCGGCAGCCUUCGGUGGUGCGAUAGCGCCAACCUUCUCAACUAUGACACUUAAAACGCGUGCUCCGUUGAAUGGAGUUUAUCAUG [U6C U7G A40C A52G C85U G100C G117U C118U]
GGAUCCGCUCGAUCUAACAAAAAAGACAAAUCUGCCACAAAGCUUGAGAGCAUCUUCGGAUGCAGGGGCGGCAGCCUUCGGUGGCGCGAUAGCGCCAACGUUCUCAAUUAUGACACGCAAAACGCGUGCUCCGUUGAAUGGAGUUUAUCAUG [U6C U7G A66G C108U]
GGAUCCUCACGAUCUAACAAAAAAGACAAAUCUGCGACAAAGCUUGAGAGCAUCUUCGGAUGCAGAGGCGGCAGCCUUCGGUGGCGCGAUAGCGCGAACGUUCUCAACUAUGACACGCAAAACGCGUGCUCCGUUGAAUGGAGUCUAUCAUA [U6C U9A C36G C96G U145C G152A]
GGAUCCUCUCGAUCCAACAAAAAAGACAAAUUUGCCACAAAGCUAGAGAGCAUCUUCGGAUGCAGAGGCGGCAGCCUUCGGUGGCGUAAUAGCGCCAACGUUCUCAACUAUGACACGCAAAACGCGUGCUCCGUUGAAUGGAGUUUAUCAUG [U6C U15C C32U U45A C87U G88A]
GGAUCCUCUCGAUCUAACAAAAAAGACAAAGCUGCCACAAAGCUUGAGACCAUCUUCGGAUGCAGAGGGGGCAGCCUUCGGUGGCGCGAUAGCCCCAACGUUCUCAACUAUGACACGCUAAACGCGUGCUCCGUUGAAUGGAGUUUAUCAAG [U6C U31G G50C C69G G94C A119U U151A]
GGAUCCUCUCGAUCUAACAAAAAAGACAAAUCUGCCACAAAGCAUGAGAGCAUCUACGGACGCAGAGGCGGCAGCCUUCGGUGGCGCGAUGGCGCCAACGUUCUCAACUAUGACACGCAAAACGCGUGCACUGUUGAAUGGAGUUUAUCCGG [U6C U44A U56A U61C A91G U130A C132U A150C U151G]
GGAUCCUCUCGAUCUAACAAAAAAGACAAAUCUGCCACAAAGCUUGAGAGCAUCUUCGGAAGCAGAGGCGGCCGCCUUCGGUGGGGCGAUAGCGCCAACGUUCUCAACUAUGACACGCAAAACGCGUGCUCCGUUGAAUGGAGUUUAUCAUG [U6C U61A A73C C85G]
GGAUCCUCUCGAUCUAACAAAAAAGACAAAUCUGCCACAAAGCUUGAGAGCAUCUUCGGAAGCAGAGCCGGCAGCCUUCGGUGACGCUAUAGCGCCAACGUUCUCAACUAUGACACGCAAGACACGUGCUCCGUUGAAUGUAGUUUACCAUG [U6C U61A G68C G84A G88U A121G G124A G141U U148C]
